Test results taken from PubChem BioAssay AID1508623 (National Center for Advancing Translational Sciences (NCATS), 2021).
Among all 48,000 compounds or so, about 450 (0.94%) were called active. Inconclusive results (about 19%) are left out. Calls follow the shape of the dose curve; as a rule, active = well fitted inhibition curve with a large enough effect; inconclusive = small, poorly fitted or top-dose-only effect; inactive = no such curve, though single readings can be large or run the other way. This is one part of the list.

assay: Primary qHTS for Identification of Small Molecule Inhibitors of Huntingtin Promoter Activity; settings: HEK293 HTT promoter firefly luciferase reporter (activity 0% = vehicle and -100% = no light), 24 h; series mostly up to 57.5 µM; activity change, negative = inhibition: at the top concentration; also: nearly all actives have a fitted effect of over 50% in size
Summary of the method: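 HEK293 Fluc reporter, 2,500 cells/well, 24 h pre-culture; cpds up to 57.5 uM final, 24 h 37 degrees C; Dual-Glo, 10 min RT; normalized vehicle = 0%, zero RLU = -100%.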
Potency is read from the fitted curve at half-maximal effect.

SMILES | activity change, negative = inhibition | Potency
CCc1ccc(-n2nc(C)c3c(C)cc(=O)n(CC(=O)N4CCCc5ccccc54)c32)cc1 | inactive: -4.43% | –
O=c1cc(-c2ccccc2)n2c(SCc3ccccc3)nnc2[nH]1 | inactive: -6.47% | –
Cc1c(C(=O)N(Cc2ccccc2F)C2CCS(=O)(=O)C2)oc2ccc(F)cc12 (stereo unspecified) | inactive: -2.95% | –
COc1ccc(N2CC(NC(=O)COc3ccccc3)CC2=O)cc1OC (stereo unspecified) | inactive: -8.06% | –
Cn1c(=O)c2c(SCC(=O)NCc3ccco3)nc(-c3ccccc3)nc2n(C)c1=O | inactive: -2.91% | –
CCc1ccc(-n2nc3cc(C)c(NC(=O)c4cccc5ccccc45)cc3n2)cc1 | inactive: -5.27% | –
O=C(O)Cc1ccc(-c2ccccc2)cc1 | inactive: 11.2% | –
Cc1ccc(-n2nc(CO)c(C(=O)NCc3ccccn3)n2)cc1C | inactive: 2.45% | –
CC1CCn2c(nc3cc(C(=O)NCCc4ccc(Cl)cc4)ccc32)C1 (stereo unspecified) | inactive: -6.49% | –
CC(C)CN(CCCNC(=O)Cn1ncc2c3ccccc3n(C)c2c1=O)CC(C)C | inactive: -2.14% | –
CCOC(=O)c1ccc(NC(=O)Nc2c[nH]c(=O)[nH]c2=O)cc1 | inactive: 8.83% | –
Cc1cc(C)cc(NC(=O)CCS(=O)(=O)c2cc3c4c(c2)CCN4C(=O)CC3)c1 | inactive: -21% | –
O=C(NC1(C(F)(F)F)C(=O)Nc2c1c(=O)[nH]c(=O)n2CCc1ccccc1)c1ccc(Cl)cc1Cl (stereo unspecified) | inactive: -4.39% | –
CCOc1ccccc1NC(=O)C1CCCN(S(=O)(=O)c2c(C)[nH]c(=O)[nH]c2=O)C1 (stereo unspecified) | inactive: -6.79% | –
CCOc1ccc(/C=C(\C#N)c2nc3ccccc3c(=O)[nH]2)cc1OC | inactive: 4.98% | –
O=C(CSc1nnc(-c2ccccc2)c(-c2ccccc2)n1)NC1CCCCC1 | inactive: -30.3% | –
Cc1ccc(N2CC(NC(=O)Cc3cccs3)CC2=O)cc1C (stereo unspecified) | inactive: -17.9% | –
CCOC(=O)N1CCc2c(sc(NCc3cccc(F)c3)c2C(=O)Nc2ccccc2OCC)C1 | inactive: -12.3% | –
Cc1nc(N2C(=O)c3oc4ccccc4c(=O)c3C2c2cccc(OCCC(C)C)c2)sc1C (stereo unspecified) | inactive: 12.9% [at 11.5 µM] | –
O=C(O)c1cn(-c2ccc(F)cc2)c2cc(N3CCNCC3)c(F)cc2c1=O | inactive | –
COC(=O)c1nnn(CC(=O)NC(=O)Nc2cccc(C)c2C)c1C(=O)OC | inactive: -25.3% | –

SMILES | activity change, negative = inhibition | Potency
CCc1nc2ccc(C(=O)N3CCN(c4ccccc4)CC3)cc2nc1CC | inactive: -16.5% | –
CCC(=O)Nc1nnc(SCc2cc(=O)c3cc(C)ccc3[nH]2)s1 | inactive: -29.4% | –
CCOc1cc(-c2nnc(SCC(=O)Nc3ccc(F)c(F)c3)nc2-c2ccc(OC)c(OCC)c2)ccc1OC | inactive: 17.3% | –
Cc1c(C(=O)OC2CCCC2)[nH]c2c1C(=O)CC(c1ccc(Cl)cc1)C2 (stereo unspecified) | inactive: -2.48% | –
CC(=O)N1CCc2c(sc3c2c(=O)n(-c2ccccc2)c(=O)n3CC(=O)Nc2cccc(C)c2)C1 | inactive: -11.4% | –
CCOc1ccc(CNS(=O)(=O)c2c(C(=O)N3CCC(C)CC3)c(C)n(C)c2C)cc1OC | inactive: -6.9% | –
CC(C)N(C(=O)CSc1nc2ccc(Cl)cc2[nH]1)c1ccccc1 | inactive: -29.8% | –
COc1ccccc1CNC(=O)CCCc1nnc2n(CC(C)C)c(=O)c3sccc3n12 | inactive: -20.2% | –
COc1ccccc1CNC(=O)CCC1N=C2c3ccccc3N=C(SCc3cccc(Cl)c3)N2C1=O (stereo unspecified) | inactive: -18.5% | –
COc1ccc(-c2cc3nc(-c4ccc(C)cc4)cc(C(F)(F)F)n3n2)cc1 | inactive: -3.4% | –
CCc1ccccc1NC(=O)Cn1nc(C(F)(F)F)c2c1CCCC2 | inactive: -16.4% | –
Cc1cc(C)c(NC(=O)CCn2c(=O)c3cccn3c3cccnc32)c(C)c1 | inactive: 0.288% | –
OCCN1CCN(C(c2ccccc2Cl)c2sc3nc(-c4ccco4)nn3c2O)CC1 (stereo unspecified) | inactive: -14.3% | –
CCCS(=O)(=O)N1CC(=O)N(c2cc(C)ccc2C)C(C)(C(=O)NC2CCCCCC2)C1 (stereo unspecified) | inactive: -9.71% | –
Cc1cccc(N2CCn3c2nc2c3c(=O)n(CCc3ccccc3)c(=O)n2C)c1 | inactive: 5.92% | –
COc1cccc(-c2cn3c(n2)sc2cc(C(=O)NCCc4ccc(OC)c(OC)c4)ccc23)c1 | inactive: -30.4% | –
N#CC1=C(N)N(c2cccc(Cl)c2)C2=C(C(=O)CCC2)C1c1cc(CN2CCOCC2)cs1 (stereo unspecified) | inactive: -0.925% | –
CC(C)N1C(=O)C(O)(c2c[nH]c3ccccc23)c2ccccc21 (stereo unspecified) | inactive: -28.2% | –
CSc1cccc(NC(=O)CN2CCN(Cc3ccccc3C)S2(=O)=O)c1 | inactive: -9.84% | –
Cc1cc(C)cc(Oc2coc3cc(OCC(=O)NC4CCCCC4)ccc3c2=O)c1 | inactive: -10.5% | –
Cc1cc(N)c(-n2cc3c(c2-c2ccc(Br)cc2)c(=O)n(C)c(=O)n3C)cc1C | inactive: -4.23% | –

SMILES | activity change, negative = inhibition | Potency
CCOc1ccc(OCC)c(NC(=O)CC(C)n2nc(C)cc2C)c1 (stereo unspecified) | inactive: -3.58% | –
CCOc1ccc(-c2cc(C(=O)Nc3ccc(NC(C)=O)cc3)no2)cc1 | inactive: 4.46% | –
Cc1ccc2onc(CNC(=O)NCc3cccc(Cl)c3)c2c1 | inactive: -23.4% | –
CCOc1ccc(NC(=O)CC2C(=O)N(c3ccc(C)cc3)C(=O)N2CCC2=CCCCC2)cc1 (stereo unspecified) | inactive: -25.9% | –
Nc1nonc1-c1nc2ccccc2n1Cc1cccc(Cl)c1 | inactive: -13.5% | –
CC(C)c1ccc(NC(=O)c2ccc(F)c(S(=O)(=O)N3CCc4ccccc4C3)c2)cc1 | – | active: 11.2 µM
O=C(c1cccn2c(=O)c3cc(Cl)ccc3nc12)N1CCN(c2ccccc2F)CC1 | inactive: 0% | –
CCOc1ccc(-n2nc(CO)c(C(=O)NCCCc3ccccc3)n2)cc1 | inactive: -19.1% | –
COc1ccc(Cl)cc1NC(=O)Cn1cc(C(=O)c2ccc(C)cc2)c(=O)c2ccc(C)nc21 | inactive: -0.506% | –
CCOC(=O)c1ccccc1NC(=O)CSc1nc(=O)[nH]c2c1CCC2 | inactive: -11.9% | –
COc1ccc(CCNC(=O)c2c(O)nc3ccccn3c2=O)cc1 | inactive: 1.36% | –
Cc1ccccc1CN1C(=O)C2(c3ccccc31)N(c1ccccc1)C(=O)CS2(=O)=O (stereo unspecified) | inactive: -6.07% | –
C=Cc1ccc(Cn2c(C)c(CNCCc3ccccc3C)c(C(=O)O)c2C)cc1 | inactive: -30.8% | –
Cc1ccn2c(=O)c(C(=O)NCCCN3CCCCC3C)c(O)nc2c1 (stereo unspecified) | inactive: -2.24% | –
COc1ccc2oc(=O)c(C(=O)Nc3ccc(C(=O)O)cc3)cc2c1 | inactive: 20.7% | –
C=CCc1cccc2cc(C(=O)Nc3ccc(F)cc3)c(=O)oc12 | inactive: 13.1% | –
Nc1ccc(S(=O)(=O)Nc2ccc(Cl)nn2)cc1 | inactive: 1.06% | –
COc1ccc(OCC(=O)Nc2nnc3n2CCS3)cc1 | inactive: -3.9% | –
C=CC[N+]1([C@H]2C[C@H]3[C@@H]4CC[C@H]5C[C@H](O)[C@@H](N6CCOCC6)C[C@]5(C)[C@@H]4CC[C@]3(C)[C@H]2OC(C)=O)CCCC1 | inactive: -1.69% | –
